The supplement of paper PMC9446081
The campaign covered roughly 39,000 compounds. About 220 (0.56%) showed activity. The list shows a part of the results.

Test system: Escherichia coli K-12 BW25113
Experiment: relative growth (OD600 normalised to plate interquartile mean) (fraction); higher = less growth inhibition, active = 0.2 or less
Details: 50 µM; LB; incubation time: overnight (16-24 h)
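Note: static incubation at 37 °C against the wild-type strain, values averaged over two biological replicates.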

| Structure (SMILES) | relative growth |
| --- | --- |
| C[C@H]1CN([C@@H](C)CO)C(=O)c2cc(NC(=O)Nc3ccccc3)ccc2O[C@H]1CN(C)C(=O)Nc1ccc(C(F)(F)F)cc1 | inactive: 1 |
| C[C@H](CO)N1C[C@H](C)[C@@H](CN(C)C(=O)Nc2cc(F)ccc2F)Oc2cc(/C=C/c3ccccc3)ccc2S1(=O)=O | inactive: 1.06 |
| C[C@@H]1CN([C@@H](C)CO)C(=O)c2cc(NC(=O)Cn3cnnn3)ccc2O[C@H]1CN(C)C(=O)NC1CCCCC1 | inactive: 0.974 |
| C[C@@H]1CCCCO[C@@H](CN(C)S(=O)(=O)c2ccc(Cl)cc2)[C@@H](C)CN([C@H](C)CO)C(=O)c2cc(NC(=O)Nc3cccc4ccccc34)ccc2O1 | inactive: 1.03 |
| O=C1O[C@@H](CO)[C@H](O)[C@@H](O)[C@@H]1O | inactive: 1.02 |
| CC(C)NC(=O)Nc1ccc2c(c1)CC(=O)N([C@@H](C)CO)C[C@@H](C)[C@@H](CN(C)C(=O)NC1CCCCC1)O2 | inactive: 1.02 |
| CC(C)C(O)=C1C(=O)OC(c2ccoc2)C2(C)C(O)C(O)C34OC5(C)OC3(C12)C(O)C1(O)C(O)C2(C)CC1(O5)C4(C)C2CC(=O)O (stereo unspecified) | inactive: 1.05 |
| COc1cc2c(Oc3ccc(NC(=O)C4(C(=O)Nc5ccc(F)cc5)CC4)cc3F)ccnc2cc1OCCCN1CCOCC1 | inactive: 0.974 |
| CO[C@H]1CN(C)C(=O)c2cc(NC(=O)Nc3ccccc3)ccc2OC[C@@H](C)N(C(=O)CN(C)C)C[C@H]1C | inactive: 1.04 |
| COCC(=O)N1C[C@]2(CCN(CC2)C(=O)CN2CCOCC2)c2c([nH]c3cc(ccc23)OC)[C@@H]1CO | inactive: 0.974 |
| CN(C)C(=O)C[C@H]1CC[C@H]2[C@@H](COC[C@@H](O)CN2S(=O)(=O)c2ccccc2)O1 | inactive: 1.01 |
| C[C@@H]1CCCCO[C@H](CN(C)Cc2ccc(C(=O)O)cc2)[C@@H](C)CN([C@H](C)CO)C(=O)c2cc(NS(=O)(=O)c3ccc(Cl)cc3)ccc2O1 | inactive: 1.01 |
| C[C@H]1CN([C@@H](C)CO)C(=O)c2cc(NC(=O)Cn3cnnn3)ccc2O[C@H]1CN(C)Cc1ccc(-c2ccccc2)cc1 | inactive: 1.02 |
| C[C@@H]1CCCCO[C@@H](CN(C)C(=O)Nc2ccccc2)[C@H](C)CN([C@@H](C)CO)C(=O)c2cc(NS(=O)(=O)c3ccccc3)ccc2O1 | inactive: 1.02 |
| C=C[C@@](C)(O)CC/C=C(\C)C(=O)O[C@@H]1[C@@H]2O[C@]2(C)[C@H]2[C@H](O[C@@H]3O[C@H](CO)[C@@H](O)[C@H](O)[C@H]3O)OC=C[C@@]12O | inactive: 0.991 |
| O=C(C[C@H]1CC[C@@H](NS(=O)(=O)c2ccc(F)cc2)[C@@H](CO)O1)NCc1ccc(Cl)c(Cl)c1 | inactive: 0.992 |
